# The full ranking holds about 33,000 sequences; the median of “E-score (-0.5 to 0.5)” is about -0.017, and the highest 2% start at about 0.3. The list shows a part of the results.
# Target: T1, Sut1 (UniProt P53032)
# T1 sequence: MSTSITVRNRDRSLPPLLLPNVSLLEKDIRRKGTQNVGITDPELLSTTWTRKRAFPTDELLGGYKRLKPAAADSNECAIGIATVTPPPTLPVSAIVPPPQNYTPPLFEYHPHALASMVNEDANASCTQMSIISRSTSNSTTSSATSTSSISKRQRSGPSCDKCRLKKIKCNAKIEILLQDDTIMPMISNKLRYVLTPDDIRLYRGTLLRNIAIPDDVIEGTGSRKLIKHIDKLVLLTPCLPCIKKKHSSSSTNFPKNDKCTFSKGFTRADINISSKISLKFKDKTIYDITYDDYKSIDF
# Assay: PBM E-score (8-mer binding enrichment) (E-score (-0.5 to 0.5)); higher = stronger / more preferred TF binding; most listed sequences are background and not binding sites
# Details: protein concentration: 200 nM; construct: GST-full length
# Outline: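 Full-length yeast transcription factors or their DNA-binding domains, GST-tagged and expressed with PURExpress, were applied at about 100-200 nM to universal all-10-mer Agilent arrays. These arrays had been made double-stranded by primer extension on fresh or once-stripped slides. Detection used fluorescent anti-GST, normalisation used masliner, and E-scores for ungapped eight-base words pooled with reverse complements came from the Universal PBM Analysis Suite.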
row,Sequence,PBM E-score
1,ATGACAGC,-0.00371
2,GAGGAAGC,-0.0806
3,CAGATGTC,0.0581
4,ACTCCCGG,0.174
5,AAGTCACT,0.0541
6,CACACGTC,-0.191
7,AACGGAGC,0.231
8,CCCCGTAC,-0.194
9,GGCTGCCA,-0.149
10,AGAGATTC,-0.00815
11,GGCAACAA,-0.127
12,AGATCTGG,-0.255
13,AATTCCGA,0.371
14,CGCGATCC,-0.145
15,GAGATCCA,0.0783
16,GACAATGC,0.0305
17,TAGTTATA,0.318
18,ACACGAAA,0.204
19,ACGGTGCG,-0.0481
20,GTCAATTA,0.214
21,ACCGCCGA,0.0107
22,CTTACAAA,0.171

row,Sequence,PBM E-score
1,GTCACTGA,-0.1
2,CATCTTCG,-0.0746
3,ACATGCCT,0.00953
4,ATTTCACA,0.113
5,TATTGTCA,0.0862
6,ATTCTGAG,0.0593
7,AAACAAGA,0.0505
8,AGGACTTC,-0.0808
9,GTGCGAAA,0.00061
10,GTGGAAAA,0.0489
11,AGACCACG,-0.253
12,CAAAACCC,0.00381
13,AGTAGCAA,0.126
14,CACTCATC,0.0214
15,CCAGCGTC,-0.251
16,AGACCCAA,-0.179
17,CGCGCCAC,-0.0589
18,GGTGAGTA,-0.0662
19,AGCAGCGC,-0.247
20,AAGTAGGT,0.0109
21,GTGTAAAA,0.144
22,ATTTTAAA,0.307

row,Sequence,PBM E-score
1,ATGCGGGA,-0.0058
2,CTCCTATC,-0.0568
3,GGTCTATA,-0.106
4,AGTGGGCC,-0.32
5,GTTGGGCA,-0.252
6,CTTGCCAC,-0.176
7,AGTGCTTA,-0.0718
8,GGTATTGA,-0.0326
9,AATACACT,0.144
10,GCCTTTAC,-0.0182
11,CCAGGCAG,-0.155
12,CCCTGCCA,-0.16
13,AAATCGTT,0.179
14,ACAAATAG,0.113
15,CCCGTTTA,-0.00276
16,CACCCCAA,-0.0763
17,GACTATAC,0.0723
18,ACGTTTTA,0.213
19,TACCTTAA,-0.00986
20,CAGTCAGA,-0.0501
21,CCGTATAA,0.105
22,ACAGAGCT,-0.258

row,Sequence,PBM E-score
1,CCGGGGGC,-0.0384
2,ATTAAGAA,0.11
3,ACAGAGTA,-0.0728
4,GGGTACCA,-0.29
5,ATCGCCTA,-0.0867
6,ATCCAGAA,0.0104
7,GAGAAATA,0.134
8,AATAAGGC,0.0317
9,ATTCTCCC,-0.0729
10,GGACCTCC,0.138
11,CAGTCTGA,0.00085
12,GCATTAGC,-0.214
13,CGGTCGAA,0.0555
14,CTTTGAAC,0.0486
15,AAGTCAAG,-0.0946
16,CCATTCCG,0.149
17,ATGTTCTG,-0.0211
18,TCAAACAA,0.134
19,AGCGCAAC,-0.0476
20,CACTTCAC,-0.14

# Reference: the supplement of paper PMC3334620
